Data on 42 sequences can be found in publication PMC7819943, “Rice protein-binding microarrays: a tool to detect cis-acting elements near promoter regions in rice”.

The other results are listed elsewhere or left out.

This experiment addresses T1, OsWOX13 (Oryza sativa, UniProt Q5QMM3 1-267).
T1 sequence: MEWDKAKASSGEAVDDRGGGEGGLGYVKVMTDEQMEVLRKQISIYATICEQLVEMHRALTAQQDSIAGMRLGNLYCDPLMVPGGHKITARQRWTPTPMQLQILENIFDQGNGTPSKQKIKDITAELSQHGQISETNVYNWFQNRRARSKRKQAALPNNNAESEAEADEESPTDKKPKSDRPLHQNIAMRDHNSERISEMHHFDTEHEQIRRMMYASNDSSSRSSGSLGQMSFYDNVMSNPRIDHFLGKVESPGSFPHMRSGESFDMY
As to the kind of experiment: protein-binding microarray (RPBM); PBS, 2% BSA, 51.3 ng/ul salmon testes DNA, 50 uM zinc acetate, 200 nM TF, 25 C, 1 h; high values mean tight binding. The settings on record: protein: recombinant; tags: N-terminal polyhistidine and DsRed monomer fusion (pET32a); label: CyDye5-dUTP incorporated in the synthesized complementary strand; 3' TTTTT single-stranded linker to array surface; dsDNA, one strand shown. In a few lines: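 Binding signal is reported as fluorescence intensity per feature (arbitrary units) from an Axon 4000B scanner. Incubation used 200 nM of each Ni–NTA-purified, N-terminally polyhistidine- and DsRed-fused transcription factor from E. coli BL21-CodonPlus on a double-stranded custom Agilent array for 1 h at 25 °C, with 50 µM zinc acetate in the buffer, followed by washing.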
For the sequence “CATTATTAATTAAATTGGGAAAATATATTGAAACAGAGGGCGGAGTCACCTAGTGCAG”, the binding signal is 40800 fluorescence intensity (a.u.).

For the sequence “GACAATAATATTGTAAATGATTTGTAATTGCTAGTGAGTGCGGAGTCACCTAGTGCAG”, the binding signal is 25700 fluorescence intensity (a.u.).

For “CATTATAGATTAATACATTTTGGGATGGAGGGAGTACTCACGGAGTCACCTAGTGCAG”, the binding signal was 3200 fluorescence intensity (a.u.).

Consider “GTCAATAATCATTTTCTCCACATTCAAGCGCACGGCGAGTCGGAGTCACCTAGTGCAG”, for which the binding signal is 3860 fluorescence intensity (a.u.).

As for “GGTTGATTAGGGTAGCACTAGCTAGCTGCTGCATTGTTTACGGAGTCACCTAGTGCAG”, the binding signal was 15100 fluorescence intensity (a.u.).

As for “TTTTCCTCATCAAATTGGCTAAATTTTAGTTTGGCGAGTACGGAGTCACCTAGTGCAG”, the binding signal is 5300 fluorescence intensity (a.u.).

“GCCTGATTAATTGATTAATTCTCCAGCTGCATCACATTGACGGAGTCACCTAGTGCAG”: the binding signal is 63700 fluorescence intensity (a.u.).

As for “GAAGATGATTGTTTTCGCGTAAGTGGGGTATCTCTGCTAGCGGAGTCACCTAGTGCAG”, the binding signal is 25000 fluorescence intensity (a.u.).

For “TTTTACACCTCTCCTAAAATTGACAAGTAACACAAACATGCGGAGTCACCTAGTGCAG”, the binding signal was 3400 fluorescence intensity (a.u.).

Regarding “TGCTAAAATTTTGACAATATTGTTAACTTGCTCTAGTTTACGGAGTCACCTAGTGCAG”, the binding signal was 6920 fluorescence intensity (a.u.).

For “GGCCCACATTAAGATTAGATTGTGCTACACATTGGTGCTACGGAGTCACCTAGTGCAG”, the binding signal is 4510 fluorescence intensity (a.u.).

Turning to “ACTTCAATTACATGCACGGGGTTGACGAGAGACGACGCCACGGAGTCACCTAGTGCAG”, the binding signal is 19300 fluorescence intensity (a.u.).

Regarding “AGACTTAATTGTAACTGTGTACTACTACGAGCTTAATCAGCGGAGTCACCTAGTGCAG”, the binding signal was 28400 fluorescence intensity (a.u.).

On to “TGATATAATTTTCACTTCTGTGTATGTACATGGTCTTGTTCGGAGTCACCTAGTGCAG”, for which the binding signal is 3580 fluorescence intensity (a.u.).

Take “GTGATGGAAAATTGGGAGTTTGGGAGAAGTTTGATGTGAACGGAGTCACCTAGTGCAG”: the binding signal is 4620 fluorescence intensity (a.u.).

Regarding “TTACTCTTAATTAAAATGAAACCGAAGCGAGTACTATTTACGGAGTCACCTAGTGCAG”, the binding signal is 3900 fluorescence intensity (a.u.).

As for “CGGATATAAATTTGAAAGAAAATTGAGTTCGACTTCGTGACGGAGTCACCTAGTGCAG”, the binding signal was 13000 fluorescence intensity (a.u.).

As to “CTGAGATGGAAAATCACACCCAATTCATTTGGCTTGTTGTCGGAGTCACCTAGTGCAG”, the binding signal was 4960 fluorescence intensity (a.u.).

Turning to “CAATAATTTACTTTGGTATCCTTGGCTACTTCAGGTTGTTCGGAGTCACCTAGTGCAG”, the binding signal was 10300 fluorescence intensity (a.u.).

Turning to “TTTCCAATAATAATTTGATAAAAGTATTTCTTTTGTCAAACGGAGTCACCTAGTGCAG”, the binding signal is 3640 fluorescence intensity (a.u.).

On to “CGGGTATTATTTGACTGATAAACCCTGATGCTTCATTATTCGGAGTCACCTAGTGCAG”, for which the binding signal is 3950 fluorescence intensity (a.u.).

In the case of “TTCACAAAATAAATCATGTAAATTAACATTAAGAAGAAATCGGAGTCACCTAGTGCAG”, the binding signal was 4900 fluorescence intensity (a.u.).

Regarding “TGTTTAATACTCTAAATTAGCGTACAAACATCCTATGTAACGGAGTCACCTAGTGCAG”, the binding signal was 3220 fluorescence intensity (a.u.).

As to “TATGATTATCCTCAGAGCCGTTTGGATCGATGGGTAGATTCGGAGTCACCTAGTGCAG”, the binding signal is 11500 fluorescence intensity (a.u.).

“TACTTTAATGAATTATTCCGTAAATAAGATTACGTCTAAGCGGAGTCACCTAGTGCAG”: the binding signal was 3520 fluorescence intensity (a.u.).

In the case of “ATTCCATTACTATGATTTAACTGAGGATTCTATCACTGAACGGAGTCACCTAGTGCAG”, the binding signal was 12600 fluorescence intensity (a.u.).

On to “GTTAATTACGGGACTGTTCCTGCTAACGTCCTCCGTCCGACGGAGTCACCTAGTGCAG”, for which the binding signal is 15900 fluorescence intensity (a.u.).

For the sequence “GATTGATCAACTGATAGCTTCCTATTTGTCCTCCTCTGCACGGAGTCACCTAGTGCAG”, the binding signal is 7240 fluorescence intensity (a.u.).

Regarding “GTATTAATGGGGATCACAGGATTGCAGTAACAGCAGCAGGCGGAGTCACCTAGTGCAG”, the binding signal is 5260 fluorescence intensity (a.u.).

In the case of “GAGTGATGATGACTAGTCTACTGGAGTAGTACTAGTGGCCCGGAGTCACCTAGTGCAG”, the binding signal was 5600 fluorescence intensity (a.u.).

Consider “CAAATAATGGAAGAAAATTTTAATGCTTTTCCATGCTGAACGGAGTCACCTAGTGCAG”, for which the binding signal is 5380 fluorescence intensity (a.u.).

Regarding “TCCTTTGATTTTGTGTTTCGTGCATCAAAGTGTCGCAATCCGGAGTCACCTAGTGCAG”, the binding signal was 8350 fluorescence intensity (a.u.).

Turning to “CAATTATTTACAATGTAATTATACTACATTTATTCTGTAGCGGAGTCACCTAGTGCAG”, the binding signal was 12900 fluorescence intensity (a.u.).

Turning to “GCCACAACAAAATGGCATAAATTAGTAGGCTACACATGTTCGGAGTCACCTAGTGCAG”, the binding signal is 3220 fluorescence intensity (a.u.).

With “TGTTTAACTGACAGTATTAATACGAGTTATTTAATGCATACGGAGTCACCTAGTGCAG”, the binding signal was 11200 fluorescence intensity (a.u.).

As to “TCTAATTAAGTAAACCACCACCCACTCTCGTCGTACGTACCGGAGTCACCTAGTGCAG”, the binding signal is 12100 fluorescence intensity (a.u.).

As for “TGACCTAATTAATTATTTAACTAATAATAATTAGTGATTACGGAGTCACCTAGTGCAG”, the binding signal was 44500 fluorescence intensity (a.u.).

“TTTGAAGTAATTCATGATTGGTGTCTTTTATTTCTATAATCGGAGTCACCTAGTGCAG”: the binding signal is 4140 fluorescence intensity (a.u.).

For the sequence “AAACCATATCACGCCGCAATTAATATAAAATCATAGTAGGCGGAGTCACCTAGTGCAG”, the binding signal is 4090 fluorescence intensity (a.u.).

In the case of “ATATATATATATATATATATATATCTACGGTGATCATCCACGGAGTCACCTAGTGCAG”, the binding signal was 17400 fluorescence intensity (a.u.).

In the case of “AACAACCAACTTTTGACAGACATAGATTAGAAGTTGTTTTCGGAGTCACCTAGTGCAG”, the binding signal is 5190 fluorescence intensity (a.u.).

As for “AGAGAGTCCCAATAATTAAGTGTTAATTATTATAAAATTTCGGAGTCACCTAGTGCAG”, the binding signal was 13600 fluorescence intensity (a.u.).
